From article PMC8287939
Results are given in words; binding and its absence hold for the method and conditions named. For some of these results: In cells and extracts the contact can be indirect. Some binding calls cover weakened binding; strength is not graded here.

Chains of the proteins cited; added tags and fusions are not shown. Lines headed by an entry give the natural chain unless they say otherwise; changes in a name come on top.
UniProt P35637: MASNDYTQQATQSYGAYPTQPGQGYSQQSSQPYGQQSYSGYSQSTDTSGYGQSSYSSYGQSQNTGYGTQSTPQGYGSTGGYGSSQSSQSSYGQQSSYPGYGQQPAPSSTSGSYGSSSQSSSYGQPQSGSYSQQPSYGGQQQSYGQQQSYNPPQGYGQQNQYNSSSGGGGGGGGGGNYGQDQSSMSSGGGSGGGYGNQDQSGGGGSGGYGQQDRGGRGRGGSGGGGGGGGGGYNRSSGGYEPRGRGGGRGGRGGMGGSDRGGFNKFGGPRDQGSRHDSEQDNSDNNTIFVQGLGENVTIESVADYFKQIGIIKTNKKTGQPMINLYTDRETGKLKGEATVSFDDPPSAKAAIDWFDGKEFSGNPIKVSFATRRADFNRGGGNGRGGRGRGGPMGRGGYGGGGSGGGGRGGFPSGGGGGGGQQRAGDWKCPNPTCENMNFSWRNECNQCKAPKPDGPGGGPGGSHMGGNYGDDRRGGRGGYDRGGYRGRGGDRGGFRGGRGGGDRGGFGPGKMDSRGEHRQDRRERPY
UniProt Q16630: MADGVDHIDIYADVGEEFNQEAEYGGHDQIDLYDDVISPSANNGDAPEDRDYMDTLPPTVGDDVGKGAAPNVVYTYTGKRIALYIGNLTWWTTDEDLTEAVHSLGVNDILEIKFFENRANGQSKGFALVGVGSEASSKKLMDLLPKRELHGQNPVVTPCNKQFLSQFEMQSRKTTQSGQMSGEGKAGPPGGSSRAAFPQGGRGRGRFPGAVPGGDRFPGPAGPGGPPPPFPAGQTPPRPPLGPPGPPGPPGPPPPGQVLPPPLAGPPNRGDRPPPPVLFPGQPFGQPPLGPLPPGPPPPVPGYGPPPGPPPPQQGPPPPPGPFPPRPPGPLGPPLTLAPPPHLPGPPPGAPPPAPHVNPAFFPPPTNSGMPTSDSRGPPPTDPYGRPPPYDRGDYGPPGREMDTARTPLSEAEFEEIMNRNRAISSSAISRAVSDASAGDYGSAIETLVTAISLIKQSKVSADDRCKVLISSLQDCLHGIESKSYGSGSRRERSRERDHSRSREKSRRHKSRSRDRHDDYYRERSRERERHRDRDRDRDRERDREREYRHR
UniProt P51532: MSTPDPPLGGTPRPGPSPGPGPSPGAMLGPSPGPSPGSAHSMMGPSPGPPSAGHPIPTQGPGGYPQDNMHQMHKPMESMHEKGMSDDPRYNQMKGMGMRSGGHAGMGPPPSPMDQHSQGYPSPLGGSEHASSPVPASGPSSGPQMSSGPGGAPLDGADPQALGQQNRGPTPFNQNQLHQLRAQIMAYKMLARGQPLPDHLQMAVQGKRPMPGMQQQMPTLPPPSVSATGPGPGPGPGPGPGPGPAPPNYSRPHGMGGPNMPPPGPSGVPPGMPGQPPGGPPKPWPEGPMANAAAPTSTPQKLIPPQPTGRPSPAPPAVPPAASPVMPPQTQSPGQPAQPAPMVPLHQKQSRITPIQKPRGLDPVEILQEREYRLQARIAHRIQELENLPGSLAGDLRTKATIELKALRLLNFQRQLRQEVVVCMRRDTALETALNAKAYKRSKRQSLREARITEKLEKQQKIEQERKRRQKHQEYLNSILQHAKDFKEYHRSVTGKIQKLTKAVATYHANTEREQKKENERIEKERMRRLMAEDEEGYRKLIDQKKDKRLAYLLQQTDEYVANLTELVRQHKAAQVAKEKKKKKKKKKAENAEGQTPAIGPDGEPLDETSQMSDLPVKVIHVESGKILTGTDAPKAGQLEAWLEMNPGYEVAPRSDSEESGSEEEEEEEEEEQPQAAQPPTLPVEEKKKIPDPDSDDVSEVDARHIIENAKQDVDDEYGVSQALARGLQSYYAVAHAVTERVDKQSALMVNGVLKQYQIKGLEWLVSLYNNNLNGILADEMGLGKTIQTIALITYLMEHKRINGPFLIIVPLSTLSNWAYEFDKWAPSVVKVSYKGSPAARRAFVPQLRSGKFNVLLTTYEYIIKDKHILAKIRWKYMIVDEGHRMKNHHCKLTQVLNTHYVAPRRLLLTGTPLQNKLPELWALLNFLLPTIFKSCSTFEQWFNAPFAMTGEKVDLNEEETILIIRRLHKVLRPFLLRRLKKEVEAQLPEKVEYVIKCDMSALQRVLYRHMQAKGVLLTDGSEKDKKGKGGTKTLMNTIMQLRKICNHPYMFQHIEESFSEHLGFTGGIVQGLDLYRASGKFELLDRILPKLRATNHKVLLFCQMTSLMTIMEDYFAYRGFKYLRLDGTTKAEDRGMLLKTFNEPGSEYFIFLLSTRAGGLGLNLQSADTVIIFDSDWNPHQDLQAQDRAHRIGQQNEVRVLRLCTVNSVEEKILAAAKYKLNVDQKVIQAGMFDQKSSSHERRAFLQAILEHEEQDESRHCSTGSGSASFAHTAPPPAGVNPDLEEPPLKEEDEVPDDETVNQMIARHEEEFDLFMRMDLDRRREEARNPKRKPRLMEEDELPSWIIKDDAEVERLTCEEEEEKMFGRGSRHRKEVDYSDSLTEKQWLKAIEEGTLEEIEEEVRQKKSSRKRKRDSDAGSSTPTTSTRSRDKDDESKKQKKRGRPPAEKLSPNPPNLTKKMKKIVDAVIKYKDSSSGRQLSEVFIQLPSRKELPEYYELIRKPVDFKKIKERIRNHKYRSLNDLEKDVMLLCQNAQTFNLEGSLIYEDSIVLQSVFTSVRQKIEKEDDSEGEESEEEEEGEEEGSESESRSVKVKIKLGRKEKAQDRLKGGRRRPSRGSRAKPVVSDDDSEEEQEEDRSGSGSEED
UniProt Q15388: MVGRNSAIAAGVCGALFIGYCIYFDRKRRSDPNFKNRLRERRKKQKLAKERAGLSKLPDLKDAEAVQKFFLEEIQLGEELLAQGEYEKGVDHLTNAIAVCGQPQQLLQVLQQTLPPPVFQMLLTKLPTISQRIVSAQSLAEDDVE
UniProt P21796: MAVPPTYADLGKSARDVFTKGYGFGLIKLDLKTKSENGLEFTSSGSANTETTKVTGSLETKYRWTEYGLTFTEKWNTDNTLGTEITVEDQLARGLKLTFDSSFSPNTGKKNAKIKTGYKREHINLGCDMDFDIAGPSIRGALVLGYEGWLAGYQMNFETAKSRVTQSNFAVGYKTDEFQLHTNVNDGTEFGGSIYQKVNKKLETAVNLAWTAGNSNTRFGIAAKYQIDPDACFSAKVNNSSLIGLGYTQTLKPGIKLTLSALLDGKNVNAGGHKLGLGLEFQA

Tests used:
eGFP-FUS P525L [1] = biological target: eGFP-FUS P525L (UniProt P35637); assay: co-IP; non-LLPS conditions: eGFP-FUS captured from HEK293T lysate by anti-GFP nanobodies on magnetic beads; 75 mM HEPES pH7.3, 100 mM KOAc, 0.5 mM DTT, 0.5% NP40, RNase inhibitor; 3 h at 4°C; 5 washes in 2x lysis buffer; western blot
[2] = biological target: eGFP-GSG15-FUS (wild type eGFP-FUS) (UniProt P35637); assay: as above
eGFP-FUS P525L [3] = biological target: eGFP-FUS P525L (UniProt P35637); assay: purification of formaldehyde-stabilised FUS droplets by fluorescence-activated particle sorting, western blot; LLPS conditions: HEK293T lysate concentrated about 2-fold, eGFP-FUS droplets stabilised with 0.1% formaldehyde for 8 min at room temperature, sorted by eGFP fluorescence and side scatter, pelleted and washed in PBS; western blot
[4] = biological target: eGFP-GSG15-FUS (wild type eGFP-FUS) (UniProt P35637); assay: as above
[5] = biological target: FLAG-FUS P525L (in HeLa cells) (UniProt P35637); assay: proximity ligation; HeLa cells transfected with FLAG-FUS or FLAG-FUS P525L; intact cells
FLAG-FUS (in HeLa cells) = FLAG-FUS (in HeLa cells) (UniProt P35637); assay: as above
[6] = biological target: FLAG-tagged FUS P525L (in 293T cells) (UniProt P35637); assay: condition: only without in situ DSP/DTME crosslinking; co-IP; immunoprecipitation from total extracts of 293T cells transfected with FLAG-tagged FUS P525L; uncrosslinked sample
[7] = biological target: FLAG-tagged FUS P525L (in 293T cells) (UniProt P35637); assay: co-IP; in situ DSP/DTME crosslinking of 293T cells transfected with FLAG-tagged FUS P525L, then immunoprecipitation from total extracts; crosslinked sample

Row | Substance | binding (eGFP-FUS P525L [1]) | binding [2] | binding (eGFP-FUS P525L [3]) | binding [4] | binding [5] | binding (FLAG-FUS (in HeLa cells)) | binding [6] | binding [7]
1 | CPSF6 (from UniProt Q16630 1-551) | no binding (condition: non-LLPS conditions) | no binding (condition: non-LLPS conditions) | binds | binds | – | – | – | –
2 | CPSF6 (in HeLa cells) (from UniProt Q16630 1-551) | – | – | – | – | binds | binds | – | –
3 | SMARCA4 (from UniProt P51532 1-1647) | no binding (condition: non-LLPS conditions) | no binding (condition: non-LLPS conditions) | binds | binds | – | – | – | –
4 | SMARCA4 (in HeLa cells) (from UniProt P51532 1-1647) | – | – | – | – | binds | binds | – | –
5 | TOM-20 (from UniProt Q15388 1-145) | no binding (condition: non-LLPS conditions) | no binding (condition: non-LLPS conditions) | binds | binds | – | – | no binding | binds
6 | TOM-20 (in HeLa cells) (from UniProt Q15388 1-145) | – | – | – | – | binds | binds | – | –
7 | VDAC1 (from UniProt P21796 1-283) | no binding (condition: non-LLPS conditions) | no binding (condition: non-LLPS conditions) | binds | binds | – | – | – | –
8 | VDAC1 (in HeLa cells) (from UniProt P21796 1-283) | – | – | – | – | binds | binds | – | –
9 | hnRNP K (from UniProt P61978 1-463) | – | – | – | – | – | – | no binding | binds
